# Results: the supplement of paper PMC8728848
# The list shows a part of the results.
# B1: Alpha-agglutinin (Saccharomyces cerevisiae) (protein)
# chain: MFTFLKIILWLFSLALASAININDITFSNLEITPLTANKQPDQGWTATFDFSIADASSIREGDEFTLSMPHVYRIKLLNSSQTATISLADGTEAFKCYVSQQAAYLYENTTFTCTAQNDLSSYNTIDGSITFSLNFSDGGSSYEYELENAKFFKSGPMLVKLGNQMSDVVNFDPAAFTENVFHSGRSTGYGSFESYHLGMYCPNGYFLGGTEKIDYDSSNNNVDLDCSSVQVYSSNDFNDWWFPQSYNDTNADVTCFGSNLWITLDEKLYDGEMLWVNALQSLPANVNTIDHALEFQYTCLDTIANTTYATQFSTTREFIVYQGR
# Legend:
# Assay in all cases: glycan array binding signal (z-score within array); higher = stronger binding
# Conditions in all cases: glycan notation: IUPAC condensed, linker removed
# Fuc(a1-2)Gal = target: Fuc(a1-2)Gal
# Procedure, shortened: (§1)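 Columns mapping to the same glycan were averaged after glycan names were converted to IUPAC-condensed notation. The data come from 3228 arrays in the Consortium for Functional Glycomics database, limited to those with an available protein sequence. Binding is reported as a within-array Z-score averaged across arrays of one protein sequence and across linkers.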
# Fuc(a1-2)Gal(b1-3)GalNAc = target: Fuc(a1-2)Gal(b1-3)GalNAc
# Procedure, shortened: as §1
# [1] = target: Fuc(a1-2)Gal(b1-3)GalNAc(b1-3)Gal
# Procedure, shortened: as §1
# [2] = target: Fuc(a1-2)Gal(b1-3)GalNAc(b1-3)Gal(a1-4)Gal(b1-4)Glc
# Procedure, shortened: as §1
# [3] = target: Fuc(a1-2)Gal(b1-3)GalNAc(b1-3)Gal(b1-4)Glc
# Procedure, shortened: as §1
# [4] = target: Fuc(a1-2)Gal(b1-3)GalNAc(b1-4)[Neu5Ac(a2-3)]Gal(b1-4)Glc
# Procedure, shortened: as §1
# [5] = target: Fuc(a1-2)Gal(b1-3)[Fuc(a1-4)]GlcNAc
# Procedure, shortened: as §1
# Fuc(a1-2)Gal(b1-4)Glc = target: Fuc(a1-2)Gal(b1-4)Glc
# Procedure, shortened: as §1
# Fuc(a1-2)Gal(b1-4)GlcNAc = target: Fuc(a1-2)Gal(b1-4)GlcNAc
# Procedure, shortened: as §1
# [6] = target: Fuc(a1-2)Gal(b1-4)GlcNAc(b1-3)Gal(b1-4)GlcNAc
# Procedure, shortened: as §1
# [7] = target: Fuc(a1-2)Gal(b1-4)GlcNAc(b1-3)Gal(b1-4)GlcNAc(b1-3)Gal(b1-4)GlcNAc
# Procedure, shortened: as §1
# [8] = target: Fuc(a1-2)Gal(b1-4)[Fuc(a1-3)]GalNAc(b1-3)Gal(b1-4)[Fuc(a1-3)]GlcNAc
# Procedure, shortened: as §1
# [9] = target: Fuc(a1-2)Gal(b1-4)[Fuc(a1-3)]GalNAc(b1-3)Gal(b1-4)[Fuc(a1-3)]GlcNAc(b1-3)Gal(b1-4)[Fuc(a1-3)]GalNAc
# Procedure, shortened: as §1
# [10] = target: Fuc(a1-2)Gal(b1-4)[Fuc(a1-3)]GlcNAc
# Procedure, shortened: as §1
# Fuc(a1-2)GlcNAc = target: Fuc(a1-2)GlcNAc
# Procedure, shortened: as §1
# Fuc(a1-2)[Gal(a1-3)]Gal = target: Fuc(a1-2)[Gal(a1-3)]Gal
# Procedure, shortened: as §1
# [11] = target: Fuc(a1-2)[Gal(a1-3)]Gal(b1-3)GlcNAc
# Procedure, shortened: as §1
# [12] = target: Fuc(a1-2)[Gal(a1-3)]Gal(b1-4)Glc
# Procedure, shortened: as §1
# [13] = target: Fuc(a1-2)[Gal(a1-3)]Gal(b1-4)GlcNAc
# Procedure, shortened: as §1
# [14] = target: Fuc(a1-2)[Gal(a1-3)]Gal(b1-4)[Fuc(a1-3)]GlcNAc
# Procedure, shortened: as §1
# [15] = target: Fuc(a1-2)[Gal(a1-4)]Gal(b1-4)GalNAc
# Procedure, shortened: as §1
# [16] = target: Fuc(a1-2)[GalNAc(a1-3)]Gal
# Procedure, shortened: as §1
# [17] = target: Fuc(a1-2)[GalNAc(a1-3)]Gal(b1-3)GlcNAc
# Procedure, shortened: as §1
# [18] = target: Fuc(a1-2)[GalNAc(a1-3)]Gal(b1-4)Glc
# Procedure, shortened: as §1
# [19] = target: Fuc(a1-2)[GalNAc(a1-3)]Gal(b1-4)GlcNAc
# Procedure, shortened: as §1
# [20] = target: Fuc(a1-2)[GalNAc(a1-3)]Gal(b1-4)[Fuc(a1-3)]GlcNAc
# Procedure, shortened: as §1
# [21] = target: Fuc(a1-2)[GalNAc(a1-4)]Gal(b1-4)GlcNAc
# Procedure, shortened: as §1
# Fuc(a1-3)GlcNAc = target: Fuc(a1-3)GlcNAc
# Procedure, shortened: as §1
# [22] = target: Fuc(a1-3)[Gal(b1-4)]GlcNAc
# Procedure, shortened: as §1
# [23] = target: Fuc(a1-3)[Gal(b1-4)]GlcNAc(b1-4)Gal(b1-4)[Fuc(a1-3)]GlcNAc
# Procedure, shortened: as §1
# [24] = target: Fuc(a1-3)[Gal(b1-4)]GlcNAc(b1-4)Gal(b1-4)[Fuc(a1-3)]GlcNAc(b1-4)Gal(b1-4)[Fuc(a1-3)]GlcNAc
# Procedure, shortened: as §1
# [25] = target: Fuc(a1-3)[Gal3S(b1-4)]GlcNAc
# Procedure, shortened: as §1
# [26] = target: Fuc(a1-3)[GalNAc(b1-4)]Gal(b1-4)GlcNAc
# Procedure, shortened: as §1
# Fuc(a1-4)GlcNAc = target: Fuc(a1-4)GlcNAc
# Procedure, shortened: as §1
# Fuc(b1-3)GlcNAc = target: Fuc(b1-3)GlcNAc
# Procedure, shortened: as §1
# Gal(a1-2)Gal = target: Gal(a1-2)Gal
# Procedure, shortened: as §1
# Gal(a1-3)Gal = target: Gal(a1-3)Gal
# Procedure, shortened: as §1
# Gal(a1-3)Gal(b1-3)Glc = target: Gal(a1-3)Gal(b1-3)Glc
# Procedure, shortened: as §1
# Gal(a1-3)Gal(b1-3)GlcNAc = target: Gal(a1-3)Gal(b1-3)GlcNAc
# Procedure, shortened: as §1
# Gal(a1-3)Gal(b1-4)GlcNAc = target: Gal(a1-3)Gal(b1-4)GlcNAc
# Procedure, shortened: as §1
# [27] = target: Gal(a1-3)Gal(b1-4)[Fuc(a1-3)]GalNAc
# Procedure, shortened: as §1
# Gal(a1-3)GlcNAc = target: Gal(a1-3)GlcNAc
# Procedure, shortened: as §1
# [28] = target: Gal(a1-3)[Gal(a1-4)]Gal(b1-4)GlcNAc
# Procedure, shortened: as §1
# Gal(a1-4)Gal(b1-4)Gal = target: Gal(a1-4)Gal(b1-4)Gal
# Procedure, shortened: as §1
# Gal(a1-4)Gal(b1-4)GalNAc = target: Gal(a1-4)Gal(b1-4)GalNAc
# Procedure, shortened: as §1
binder,measurement,setting,value
B1,glycan array binding signal (z-score),Fuc(a1-2)Gal,-0.186
same,glycan array binding signal (z-score),Fuc(a1-2)Gal(b1-3)GalNAc,-0.147
same,glycan array binding signal (z-score),[1],-0.245
same,glycan array binding signal (z-score),[2],-0.21
same,glycan array binding signal (z-score),[3],6.41
same,glycan array binding signal (z-score),[4],-0.232
same,glycan array binding signal (z-score),[5],-0.196
same,glycan array binding signal (z-score),Fuc(a1-2)Gal(b1-4)Glc,-0.195
same,glycan array binding signal (z-score),Fuc(a1-2)Gal(b1-4)GlcNAc,-0.085
same,glycan array binding signal (z-score),[6],-0.207
same,glycan array binding signal (z-score),[7],-0.234
same,glycan array binding signal (z-score),[8],-0.238
same,glycan array binding signal (z-score),[9],-0.187
same,glycan array binding signal (z-score),[10],-0.239
same,glycan array binding signal (z-score),Fuc(a1-2)GlcNAc,-0.236
same,glycan array binding signal (z-score),Fuc(a1-2)[Gal(a1-3)]Gal,-0.233
same,glycan array binding signal (z-score),[11],-0.249
same,glycan array binding signal (z-score),[12],-0.207
same,glycan array binding signal (z-score),[13],-0.219
same,glycan array binding signal (z-score),[14],-0.112
same,glycan array binding signal (z-score),[15],0.136
same,glycan array binding signal (z-score),[16],-0.107
same,glycan array binding signal (z-score),[17],-0.098
same,glycan array binding signal (z-score),[18],0.558
same,glycan array binding signal (z-score),[19],0.15
same,glycan array binding signal (z-score),[20],-0.153
same,glycan array binding signal (z-score),[21],-0.182
same,glycan array binding signal (z-score),Fuc(a1-3)GlcNAc,-0.02
same,glycan array binding signal (z-score),[22],-0.236
same,glycan array binding signal (z-score),[23],-0.213
same,glycan array binding signal (z-score),[24],-0.167
same,glycan array binding signal (z-score),[25],-0.164
same,glycan array binding signal (z-score),[26],-0.194
same,glycan array binding signal (z-score),Fuc(a1-4)GlcNAc,-0.216
same,glycan array binding signal (z-score),Fuc(b1-3)GlcNAc,-0.228
same,glycan array binding signal (z-score),Gal(a1-2)Gal,-0.096
same,glycan array binding signal (z-score),Gal(a1-3)Gal,0.117
same,glycan array binding signal (z-score),Gal(a1-3)Gal(b1-3)Glc,-0.222
same,glycan array binding signal (z-score),Gal(a1-3)Gal(b1-3)GlcNAc,-0.208
same,glycan array binding signal (z-score),Gal(a1-3)Gal(b1-4)GlcNAc,-0.248
same,glycan array binding signal (z-score),[27],-0.25
same,glycan array binding signal (z-score),Gal(a1-3)GlcNAc,-0.133
same,glycan array binding signal (z-score),[28],0.062
same,glycan array binding signal (z-score),Gal(a1-4)Gal(b1-4)Gal,-0.105
same,glycan array binding signal (z-score),Gal(a1-4)Gal(b1-4)GalNAc,0.128
